Experimental findings from a collection of fitness landscapes (doi:10.1126/science.1257360) are described below.

B1: PhoQ; a variant is named by its letters at X, in order, P23837 (parent)
chain: MKKLLRLFFPLSLRVRFLLATAAVVLVLSLAYGMVALIGYSVSFDKTTFRLLRGESNLFYTLAKWENNKLHVELPENIDKQSPTMTLIYDENGQLLWAQRDVPWLMKMIQPDWLKSNGFHEIEADVNDTSLLLSGDHSIQQQLQEVREDDDDAEMTHSVAVNVYPATSRMPKLTIVVVDTIPVELKSSYMVWSWFIYVLSANLLLVIPLLWVAAWWSLRPIEALAKEVRELEEHNRELLNPATTRELTSLVRNLNRLLKSERERYDKYRTTLTDLTHSLKTPLXXLQXXLRSLRSEKMSVSDAEPVMLEQISRISQQIGYYLHRASMRGGTLLSRELHPVAPLLDNLTSALNKVYQRKGVNISLDISPEISFVGEQNDFVEVMGNVLDNACKYCLEFVEISARQTDEHLYIVVEDDGPGIPLSKREVIFDRGQRVDTLRPGQGVGLAVAREITEQYEGKIVAGESMLGGARMEVIFGRQHSAPKDE

This is one part of the list.

Variants of B1 are the subject of the test. As to the kind of experiment: enrichment ratio after two sorts for PhoP signalling (ratio (wild type AVST 3.29)); higher = more functional. The following applies: with PhoP (E. coli).
Consider VNEN, for which the enrichment ratio is at most 0.25. In the case of FSVI, the enrichment ratio was 7.81. Consider KYAC, for which the enrichment ratio is at most 0.25. As to IPLI, the enrichment ratio is at most 0.25. NLRL: the enrichment ratio is at most 0.25.

Regarding AKER, the enrichment ratio is at most 0.25.

As to RIKG, the enrichment ratio was at most 0.25. On to SINY, for which the enrichment ratio was 4.58. The figure for VDIQ is at most 0.25.

In the case of SRMH, the enrichment ratio stood at 3.42. For TLQR, the enrichment ratio was 0.757. The figure for DYCC is at most 0.25. As to SYGK, the enrichment ratio is at most 0.25. Take AVPN: the enrichment ratio is at most 0.25.

Turning to TCPT, the enrichment ratio was at most 0.25. As for GWAQ, the enrichment ratio was at most 0.25. Turning to SWQM, the enrichment ratio is at most 0.25. Take EVCL: the enrichment ratio was at most 0.25.

In the case of YCCF, the enrichment ratio is at most 0.25. GYPA: the enrichment ratio was at most 0.25. Consider RYFE, for which the enrichment ratio is at most 0.25. Take MHRT: the enrichment ratio was at most 0.25. The figure for NWMP is at most 0.25. Then MKHS, with at most 0.25. Regarding DVHF, the enrichment ratio is at most 0.25.

As for QHDT, the enrichment ratio was determined as 8.45. Consider RFAK, for which the enrichment ratio was at most 0.25. The figure for GTAR is at most 0.25. Consider LYWY, for which the enrichment ratio is at most 0.25. Regarding FVNA, the enrichment ratio is at most 0.25. Turning to HYCN, the enrichment ratio is at most 0.25.

As for YGQP, the enrichment ratio was at most 0.25.

For the variant GSDP, the enrichment ratio is at most 0.25. For the variant ELYS, the enrichment ratio was at most 0.25. The figure for AYCP is at most 0.25. For GGCP, the enrichment ratio was at most 0.25. Turning to RWVH, the enrichment ratio is at most 0.25. Consider ADSD, for which the enrichment ratio is at most 0.25. For HQYL, the enrichment ratio is at most 0.25. In the case of ADMN, the enrichment ratio is at most 0.25. In the case of ITSG, the enrichment ratio is at most 0.25.

With PKRE, the enrichment ratio is at most 0.25.

As for YNSF, the enrichment ratio is at most 0.25. For QPLD, the enrichment ratio was at most 0.25. As to KNDI, the enrichment ratio is at most 0.25.

For the variant WLCF, the enrichment ratio was at most 0.25. Take QHQH: the enrichment ratio is at most 0.25. With VHCG, the enrichment ratio was at most 0.25. As to NGMA, the enrichment ratio is at most 0.25.

In the case of THRK, the enrichment ratio is at most 0.25. In the case of YDSY, the enrichment ratio is at most 0.25. As for YWFK, the enrichment ratio is at most 0.25. CLPF: the enrichment ratio was at most 0.25. On to PPGP, for which the enrichment ratio was at most 0.25. For the variant MNWP, the enrichment ratio is at most 0.25. With GFPS, the enrichment ratio is at most 0.25. The figure for HNYY is at most 0.25; for KAVG it is at most 0.25. In the case of TDHF, the enrichment ratio was at most 0.25. For AWRH, the enrichment ratio is at most 0.25. For HITS, the enrichment ratio is at most 0.25.

As to MGIF, the enrichment ratio was at most 0.25. Regarding RHAH, the enrichment ratio was at most 0.25. Take EQSM: the enrichment ratio was at most 0.25. For the variant RNRN, the enrichment ratio was at most 0.25. For the variant RTGK, the enrichment ratio is at most 0.25. With WNFA, the enrichment ratio was at most 0.25. As for FLHE, the enrichment ratio was at most 0.25. The figure for LSRE is at most 0.25; for VQKR it is at most 0.25. Consider ADVM, for which the enrichment ratio turned out to be 6.88. As to GTST, the enrichment ratio stood at 0.355. Then QGMV, with 23.6; and YDKA, with at most 0.25.

Take PYIW: the enrichment ratio is at most 0.25.

WHIY: the enrichment ratio was at most 0.25. The figure for HDTV is at most 0.25; for YVHL it is at most 0.25. GFCL: the enrichment ratio is at most 0.25. HTGP: the enrichment ratio was at most 0.25. For the variant DCQL, the enrichment ratio was 4.02.

For the variant STWC, the enrichment ratio stood at 0.489. Consider RTTN, for which the enrichment ratio is at most 0.25. The figure for MIPT is at most 0.25; for PMEP it is at most 0.25. As for ELDW, the enrichment ratio is at most 0.25.

As to LLFH, the enrichment ratio is at most 0.25. Then FCDA, with at most 0.25; and ETAM, with at most 0.25. As to QPSE, the enrichment ratio is at most 0.25. Then MVHL, with 1.82. For NHDP, the enrichment ratio was at most 0.25. For KCNH, the enrichment ratio is at most 0.25.

As for FWRG, the enrichment ratio is at most 0.25. Then AVTP, with at most 0.25; and NAFM, with at most 0.25.

Take RLFV: the enrichment ratio was at most 0.25. The figure for DMNT is at most 0.25. As to QGGQ, the enrichment ratio is 8.17. The figure for IFCD is at most 0.25; for SLQW it is at most 0.25; for ICSQ it is at most 0.25. As for LKVN, the enrichment ratio was at most 0.25. Turning to DIVW, the enrichment ratio is at most 0.25. Regarding RKRH, the enrichment ratio is at most 0.25.

For PPTK, the enrichment ratio is at most 0.25. As for FEAL, the enrichment ratio is at most 0.25.

For the variant SSEV, the enrichment ratio stood at 0.388. For the variant NEDH, the enrichment ratio is at most 0.25. TKDH: the enrichment ratio was at most 0.25.

Turning to TLWW, the enrichment ratio was at most 0.25.

QPRK: the enrichment ratio was at most 0.25. Then RLKM, with at most 0.25. In the case of GWCY, the enrichment ratio was at most 0.25. IPDS: the enrichment ratio is at most 0.25. With GWQL, the enrichment ratio was at most 0.25.

For the variant ASPR, the enrichment ratio was at most 0.25.

Turning to VNIW, the enrichment ratio was at most 0.25.

For the variant SGHF, the enrichment ratio was at most 0.25. With IGKR, the enrichment ratio was at most 0.25.

TCSI: the enrichment ratio stood at 23.8.

As to HGKM, the enrichment ratio was at most 0.25. For KGNT, the enrichment ratio is at most 0.25. DIFN: the enrichment ratio was at most 0.25.

IKED: the enrichment ratio is at most 0.25. In the case of DTHN, the enrichment ratio is at most 0.25. The figure for WVSK is at most 0.25.

MFSV: the enrichment ratio is at most 0.25. PKYD: the enrichment ratio was at most 0.25. With VGDC, the enrichment ratio is at most 0.25.

With PNGP, the enrichment ratio was at most 0.25. The figure for KHCP is at most 0.25; for IWPP it is at most 0.25. For RMEI, the enrichment ratio was at most 0.25. KKPF: the enrichment ratio was at most 0.25. Regarding VCVP, the enrichment ratio was at most 0.25. As for SIPT, the enrichment ratio is at most 0.25. In the case of PMST, the enrichment ratio is at most 0.25. Take AYSY: the enrichment ratio is at most 0.25. In the case of FRHS, the enrichment ratio was at most 0.25. On to FLSG, for which the enrichment ratio was 0.291. In the case of CSIK, the enrichment ratio is at most 0.25. Consider TDNR, for which the enrichment ratio was at most 0.25. On to ARSI, for which the enrichment ratio was at most 0.25. As for TSIS, the enrichment ratio was 1.37.

Turning to RAAC, the enrichment ratio is at most 0.25. Turning to YLGN, the enrichment ratio is at most 0.25. KCSF: the enrichment ratio is at most 0.25. As for GYGC, the enrichment ratio is at most 0.25. The figure for WPEP is at most 0.25.

For the variant FRPT, the enrichment ratio was 0.275. Turning to NNPQ, the enrichment ratio was at most 0.25. On to MFNP, for which the enrichment ratio is at most 0.25.
